# Laboratory results published in PubChem BioAssay AID540317 (National Center for Advancing Translational Sciences (NCATS), 2011).
# Among all 390,000 compounds or so, about 2,200 (0.56%) were called active. Inconclusive means that the source gave no clear call. Such entries were picked first, then a sample of the others. The call rests on the fitted dose curve; in most records, active means well fitted inhibition curve with a large enough effect; inconclusive means small, poorly fitted or top-dose-only effect; inactive means no such curve, though single readings can be large or run the other way. Where the call is inconclusive, the potency comes from a doubtful curve fit.
# Biological target: Chromobox protein homolog 1 (Homo sapiens) (UniProt P83916)
# Sequence of UniProt P83916 (P83916 whole entry, looked up): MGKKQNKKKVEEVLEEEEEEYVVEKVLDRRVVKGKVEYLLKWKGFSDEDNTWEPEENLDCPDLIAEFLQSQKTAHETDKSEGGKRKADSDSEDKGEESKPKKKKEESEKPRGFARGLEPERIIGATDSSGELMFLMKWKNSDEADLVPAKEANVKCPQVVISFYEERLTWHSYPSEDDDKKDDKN
# Test: HTS for Inhibitors of HP1-beta Chromodomain Interactions with Methylated Histone Tails; further: nearly all actives have a fitted effect of over 70% in size
# Details: AlphaScreen HP1-beta / biotin-H3K9me3 peptide binding; series mostly up to 114 µM
# Procedure, shortened: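 HP1-beta protein (50 nM final) preincubated 30 min at room temperature with biotinylated H3(1-18)K9me3 peptide (50 nM) in PBS pH 7.4, 0.01% Tween-20, then compound added for 30 min. AlphaScreen streptavidin donor/nickel chelate acceptor beads (10 ug/mL final), 30 min dark, luminescence read.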
# Potency means the concentration at half of the fitted maximal effect; tags describe the fitted curve by direction and shape.
row,SMILES,Potency
1,Cc1ccc(NC(=O)COC(=O)c2ccco2)cc1S(=O)(=O)N1CCOCC1,"inconclusive: 89.1 µM [inhibitor, single point]"
2,C=C(C)C(=O)Nc1cccc(C2=NOC3(C2)C[C@H](C(N)=O)N(C(=O)c2ccccc2)C3)c1 (some centres undefined),"inconclusive: 39.8 µM [inhibitor, partial curve]"
3,O=C(Nc1sc2c(c1C(=O)O)CCCC2)c1ccccc1Cl,inactive
4,COc1ccccc1NC(=O)c1c(NCc2sccc2C)sc2c1CCCCC2,"inconclusive: 39.8 µM [inhibitor, partial curve, poor fit]"
5,CCOc1ccc(Cc2nnc(SCC(=O)Nc3ccc(OC)cc3)n(N)c2=O)cc1,inactive
6,COc1ccc(OC)c(C2CC(=O)N3CN(c4ccccc4F)CSC3=C2C#N)c1 (centres undefined),active: 14.1 µM
7,COC(=O)C1=C(C(=O)OC)[C@@H]2N(C)c3ccc(OC)cc3[C@@]23C[C@@H](C(=O)OC)N(C(=O)c2cc(C)oc2C)C3=N1,"inconclusive: 25.1 µM [inhibitor, full curve]"
8,Cc1c(NC(=S)/C=C2\N(C)c3ccccc3C2(C)C)c(=O)n(-c2ccccc2)n1C,"inconclusive: 39.8 µM [inhibitor, partial curve]"
9,COC(=O)c1c(-c2cccs2)csc1NC(=O)COc1c(C)ccc(C)c1C,"inconclusive: 3.55 µM [inhibitor, full curve, poor fit]"
10,Oc1ccc(N=Nc2c(O)ccc3ccccc23)cc1,"inconclusive: 3.16 µM [inhibitor, full curve, poor fit]"
11,O=c1cnnc(SCc2ccc([N+](=O)[O-])cc2)[nH]1,inactive
12,COc1cc(OC)cc(N2C(=O)N(CC(=O)c3ccc(F)cc3)c3ccccc3S2(=O)=O)c1,inactive
13,Cc1nc(SCC(=O)Nc2ccc(Cl)cc2[N+](=O)[O-])nc(C)c1C,"inconclusive: 15.8 µM [inhibitor, full curve, poor fit]"
14,O=C(NCc1c(O)ccc2ccccc12)c1ccccc1,"inconclusive: 28.2 µM [inhibitor, single point]"
15,CCN(CC)c1ccc([C@H]2[C@@H]3CCCC[C@]3(O)CCN2CC(=O)NCc2ccco2)cc1,"inconclusive: 79.4 µM [inhibitor, single point]"
16,CC(C)(C)c1ccc(OCCCN2CCCC2)cc1,"inconclusive: 25.1 µM [inhibitor, full curve]"
17,C=CC[n+]1c(-c2ccccc2)csc1NC(C)(C)C,"inconclusive: 15.8 µM [inhibitor, partial curve, poor fit]"
18,Cc1ccc2cc(C3CC(c4ccco4)=NN3C(=O)CCC(=O)O)c(Cl)nc2c1 (centres undefined),"inconclusive: 39.8 µM [inhibitor, single point]"
19,Cc1ccc(S(=O)(=O)Cc2ccc(C(=O)N3CCc4ccccc4C3)o2)cc1,"inconclusive: 50.1 µM [inhibitor, partial curve]"
20,CC1CCCN(CCOCCOc2ccc(Br)cc2Cl)C1 (centres undefined),"inconclusive: 5.01 µM [inhibitor, full curve, poor fit]"
21,CC(=O)N1CCCC1c1nc2ccccc2n1Cc1ccccc1 (centres undefined),inactive
22,CN(Cc1ccc(N(C)C)cc1)C(=O)c1cc2ccccc2o1,"inconclusive: 70.8 µM [inhibitor, partial curve]"
23,Cc1cccc(-n2ccnc2SCC(=O)Nc2ccc3c(c2)OCCO3)c1,"inconclusive: 44.7 µM [inhibitor, partial curve]"

row,SMILES,Potency
1,O=C(NCN1CCOCC1)c1cnccn1,inactive
2,Nc1ccc(N2CCCCC2)c2nonc12,"inconclusive: 22.4 µM [inhibitor, full curve]"
3,CCOC(=O)c1c(N)sc(-c2ccccc2)c1C,"inconclusive: 28.2 µM [inhibitor, full curve]"
4,Cc1ccccc1Nc1c(-c2ccc(Cl)s2)nc2cccc(C)n12,inactive
5,CN=c1sc2c(n1C)C(=O)c1ccccc1C2=O,"inconclusive: 11.2 µM [inhibitor, full curve]"
6,CN(C)c1ccc(-n2c(CCC(=O)O)ccc2-c2ccccc2)cc1,"inconclusive: 44.7 µM [inhibitor, partial curve]"
7,C[C@@H](C(=O)Nc1ccc(OC(F)F)c(Cl)c1)N1C(=O)C2CC=CCC2C1=O (some centres undefined),inactive
8,COc1ccc(CNCCCC(=O)Nc2c(Cl)ccc(C)c2Cl)cc1OC,active: 79.4 µM
9,N#C/C(=N/Nc1ccc(S(=O)(=O)N2CCOCC2)cc1)C(N)=O,"inconclusive: 89.1 µM [inhibitor, single point]"
10,Cc1c(C)c2ccc(OCC(=O)Nc3ccc(S(N)(=O)=O)cc3)c(C)c2oc1=O,"inconclusive: 79.4 µM [inhibitor, partial curve]"
11,CN(C(=O)c1sc2nc(N3CCOCC3)c3c(c2c1N)CCCC3)c1ccccc1,inactive
12,O=C(CSc1ccc2c(c1)OCCO2)NC(=O)NC1CCCC1,"inconclusive: 39.8 µM [inhibitor, single point]"
13,CCCCOc1ccc(CN2C(=O)C(=O)c3cc(Br)cc(C)c32)cc1OC,"inconclusive: 8.91 µM [inhibitor, full curve, poor fit]"
14,CC1CN(Cc2csc(-c3ccc(Cl)cc3)n2)CC(C)O1 (centres undefined),"inconclusive: 14.1 µM [inhibitor, partial curve, poor fit]"
15,CCN(CC)CCC(c1ccc(N(C)C)cc1)c1c(OC)cc(OC)c2c(C)cc(=O)oc12 (centres undefined),"inconclusive: 44.7 µM [inhibitor, partial curve, poor fit]"
16,Cc1cc(O)c(C(=O)/C=C/c2ccc(C(C)C)cc2)c(=O)o1,inactive
17,C=CCn1c2ccccc2c2n[nH]c(=S)nc21,inactive
18,CN1CCN(C2Cc3cc(Cl)ccc3Sc3cc(F)ccc32)CC1 (centres undefined),"inconclusive: 79.4 µM [inhibitor, single point]"
19,CCCN1C2=C(C(=O)CC(C)(C)C2)C(c2ccc(F)cc2)C2=C1c1ccccc1C2=O (centres undefined),"inconclusive: 39.8 µM [inhibitor, single point]"
20,N#Cc1cnc(SCCc2ccccc2)nc1N,inactive
21,C=CC[N+](C)(C)C/C(Cl)=C(\Cl)c1ccccc1,inactive
22,Cc1ccc(Cl)cc1S(=O)(=O)N1CCC(C(=O)NC2CCN(Cc3ccccc3)CC2)CC1,inactive
23,COc1ccc(C=NN=C2c3ccccc3-c3ccccc32)cc1OC,"inconclusive: 22.4 µM [inhibitor, partial curve]"

row,SMILES,Potency
1,COCCCNCCCCOc1ccc(C)cc1[N+](=O)[O-],"inconclusive: 63.1 µM [inhibitor, single point]"
2,COc1cc(CN2CCN(C(=O)CC(C)C)CC2)cc(OC)c1O,"inconclusive: 79.4 µM [inhibitor, single point]"
3,Cc1nn(C)c(C)c1NS(=O)(=O)c1c(C)n[nH]c1C,inactive
4,CCOC(=O)c1c(C)[nH]c(C2=NNC(=Nc3ccccc3OC)SC2)c1C,"inconclusive: 50.1 µM [inhibitor, partial curve]"
5,COc1ccc(CN2CCc3ccccc3C2)c(OC)c1,"inconclusive: 56.2 µM [inhibitor, partial curve, poor fit]"
6,COc1ccc(N2CCN(C(=O)c3ccc(-c4nc5ccccc5s4)o3)CC2)cc1,"inconclusive: 14.1 µM [inhibitor, partial curve]"
7,COCCCNCCCCOc1ccc(Br)cc1C,"inconclusive: 79.4 µM [inhibitor, single point]"
8,O=C(NC1CC2CCC(C1)N2Cc1ccccc1)c1cccc(F)c1 (centres undefined),inactive
9,CCOC(=O)c1ccccc1N1C(=O)C2Sc3[nH]c(=O)sc3C(/C=C/c3ccccc3)C2C1=O (centres undefined),"inconclusive: 15.8 µM [inhibitor, full curve, poor fit]"
10,COC(=O)c1scc(-c2ccc(C)cc2)c1S(=O)(=O)Nc1ccc(N(C)C)cc1,"inconclusive: 35.5 µM [inhibitor, partial curve, poor fit]"
11,Cc1ccc(S(=O)(=O)Nc2ccc(C(N)=O)cc2)cc1[N+](=O)[O-],inactive
12,Nc1nc(=S)c2ncn([C@@H]3O[C@H](CO)[C@@H](O)[C@H]3O)c2[nH]1,"inconclusive: 8.91 µM [inhibitor, full curve, poor fit]"
13,CCOc1ccc(CCNC(=O)c2cc3c(s2)-c2ccccc2OC3)cc1OCC,inactive
14,CC1=NN(C(N)=S)C(=O)C1N=Nc1c(Cl)cc([N+](=O)[O-])cc1Cl (centres undefined),"inconclusive: 20 µM [inhibitor, full curve]"
15,COc1ccc(NC(=O)CN(C)C(=O)c2oc3ccccc3c2C)cc1,inactive
16,O=C(CCCc1c[nH]c2ccccc12)N[C@@H](Cc1c[nH]c2ccccc12)C(=O)O,inactive
17,C=CCN(c1ccccc1)S(=O)(=O)c1cc2c(cc1C)N(C)CCO2,"inconclusive: 35.5 µM [inhibitor, partial curve]"
18,O=C(c1cccc(Cl)c1)N1CCN(Cc2ccccc2F)CC1,"inconclusive: 50.1 µM [inhibitor, partial curve, poor fit]"
19,COc1ccc(N2CCN(c3nc(Nc4ccc(C)c(F)c4)nc(N4CCCC4)n3)CC2)cc1,"inconclusive: 39.8 µM [inhibitor, partial curve]"
20,COC(=O)c1ccc(-c2ccco2)n1Cc1cccc(C)c1,"inconclusive: 39.8 µM [inhibitor, partial curve]"
21,COc1cc(/C=C/C(=O)c2ccccc2O)cc(OC)c1OC,inactive
22,Oc1ccc(/C=N/N2CCN(C3c4ccccc4-c4ccccc43)CC2)c(O)c1,"inconclusive: 50.1 µM [inhibitor, partial curve]"
23,CCOC(=O)c1sc(/N=C/c2c(O)ccc3ccccc23)cc1C,"inconclusive: 25.1 µM [inhibitor, single point]"
